Source: PubChem BioAssay AID463173 (ICCB-Longwood Screening Facility, Harvard Medical School, 2010)
Hit rate of the full screen: of about 52,000 compounds, about 4,300 (8.3%) were called active. Cut-off read from the data, not from the text of the source: active = survival mostly below about 52% (no sharp cut-off); inactive = mostly above about 56%. The list shows a part of the results.

What follows are compounds tested on DeltatarO mutant (assay: growth inhibition of S. aureus wild type versus tarO mutant, primary screen, teichoic acid synthesis inhibitors, RN4220, OD600 (AID 463173)). Details: OD600, 18 h, active compounds read low, screened at 18.75 µg/mL (by protocol).

Row | SMILES | survival
1 | Cc1cccc(N2CCN(C(=O)c3oc(=O)c4ccccc4c3-c3ccccc3)CC2C)c1 (stereo unspecified) | inactive: 74%
2 | Cc1ccc(CNC(=O)CSc2nnc(C)c3c(C)n(-c4ccccc4)nc23)cc1 | inactive: 73%
3 | CC1CCN(S(=O)(=O)c2ccc3c(ccc(=O)n3CC(=O)NCc3ccccc3Cl)c2)CC1 | inactive: 69%
4 | CC(C(=O)N1c2ccccc2CCc2ccccc21)n1nnc(-c2ccc(N(C)C)cc2)n1 (stereo unspecified) | inactive: 90%
5 | COc1ccc(-c2[nH]ncc2C(=O)NCc2cccc(OC)c2)cc1 | inactive: 85%
6 | COc1cccc(CNCc2cccn2-c2nnc(N3CCN(c4ccccc4)CC3)s2)c1 | inactive: 79%
7 | O=C(CCn1c(=O)c2sccc2n(CC(=O)Nc2ccccc2)c1=O)NCc1ccccc1Cl | inactive: 75%
8 | CCOc1cccc2cc(-c3cn4c(n3)sc3ccccc34)c(=O)oc12 | inactive: 72%
9 | O=S(=O)(c1ccc(Cl)cc1)c1nnn2c1nc(NC1CCCCC1)c1sccc12 | inactive: 41%
10 | CCC1CN(C(=O)N2CCC(C(=O)NCc3cc(OC)c(OC)c(OC)c3)CC2)c2ccccc2O1 (stereo unspecified) | inactive: 81%
11 | COCCNC(=O)Nc1ccc2c(c1)nc(C)n2C | inactive: 91%
12 | CN(C)c1ccc(NC(=O)Cn2nnc3sc4c(c3c2=O)CCC(C(C)(C)C)C4)cc1 (stereo unspecified) | inactive: 79%
13 | CCSc1ncc(Cl)c(C(=O)Nc2nc3ccc(Cl)cc3s2)n1 | inactive: 100%
14 | O=C(Nc1ccc2c(c1)OCCO2)C1CCCN(S(=O)(=O)Cc2ccccc2)C1 (stereo unspecified) | inactive: 102%
15 | O=C(Nc1ccc(O)c(-c2nc3ccccc3o2)c1)c1ccc(Br)cc1 | inactive: 80%
16 | CN(C)CC1(c2ccccc2)CCCC1 | inactive: 72%
17 | Cc1cc(S(=O)(=O)N(C)Cc2ccccc2)ccc1-n1cnnn1 | inactive: 81%
18 | CCN(C(=O)CCNC(=O)Cn1cnc2ccccc2c1=O)c1cc(OC)ccc1OC | inactive: 79%
19 | COc1ccc(NC(=O)CSC2=Nc3ccccc3N=C(c3ccc(F)cc3)C2)cc1OC | inactive: 86%
20 | O=C1c2cccc3c(N4CCCCC4)ccc(c23)C(=O)N1c1ccccn1 | inactive: 88%
21 | Cc1ccc2c(c1)c1c(c(=O)n(-c3ccccc3C)c(=O)n1CC(=O)c1ccc(Cl)cc1)n2C | inactive: 90%
22 | CCc1ccc(NC(=O)N(Cc2c[nH]c3ccccc23)C2CCCCC2)cc1 | inactive: 84%
23 | CCOc1cc(C(=O)Nc2ccc(NC(=O)c3cc4ccccc4o3)c(OC)c2)cc(OCC)c1OCC | inactive: 111%

Row | SMILES | survival
24 | Cc1ccc(NC(=O)Nc2c[nH]c(=O)[nH]c2=O)c(Cl)c1 | inactive: 94%
25 | CC(=O)N(C1=NCCCCS1)c1ccccc1 | inactive: 77%
26 | CCOc1ccc2nc(N3CCCC(C(=O)Nc4cc(C)ccc4C)C3)sc2c1 (stereo unspecified) | inactive: 103%
27 | Cc1ccc(NS(=O)(=O)c2cc(-c3cc(C)no3)ccc2C)c(Cl)c1 | inactive: 94%
28 | CCc1ccccc1NC(=O)CSc1nnc(-c2ccc(OC)cc2)s1 | inactive: 80%
29 | CC(=O)Nc1ccc(NC(=O)C2CCN(S(=O)(=O)c3ccc4c(c3)CCCC(=O)N4)CC2)cc1 | inactive: 85%
30 | Cc1cccc(NC(=O)c2oc3ccccc3c2NC(=O)c2cc(=O)c3ccc(C)cc3o2)c1 | active: 28%
31 | Cc1cc(NC(=O)CCc2nc3cccnc3n2Cc2cccs2)ccc1Br | inactive: 50%
32 | Cc1ccc(-n2c(=O)c3c(cnn3C)n(Cc3ccc(Cl)cc3)c2=O)cc1 | inactive: 144%
33 | COC(=O)c1ccccc1NC(=O)Cc1noc2ccc(C)cc12 | active: 39%
34 | COc1ccc(Br)cc1CNC(=O)CN1CCSc2ccccc21 | inactive: 88%
35 | CCc1ccc(NC(=O)CC2C(=O)N(c3ccccc3)C(=O)N2C(C)C)cc1 (stereo unspecified) | active: -5%
36 | Cc1cccc(NC(=S)NC(=O)/C=C/c2ccco2)c1 | inactive: 115%
37 | COc1ccc(NC(=O)Cn2c(=O)n(Cc3nc(-c4ccccc4)no3)c(=O)c3cc4c(cc32)OCO4)cc1Cl | inactive: 86%
38 | Cc1cccn2c(=O)cc(COc3cccc(NC(=O)c4ccccc4F)c3)nc12 | active: -5%
39 | CC(C)c1cnc2c(c1SCc1cccc(C(F)(F)F)c1)c(=O)n(C)c(=O)n2C | inactive: 78%
40 | CS(=O)(=O)N(CC(=O)N1CCCC1)c1cccc(Cl)c1Cl | inactive: 75%
41 | Cc1ccc(-n2c(=O)c3ccc(C(=O)NCc4ccco4)cc3n(Cc3cccc(Cl)c3)c2=O)cc1 | inactive: 89%
42 | Cc1cccc(-n2c3nc(=O)n(C)c(=O)c-3cc3c(Cl)cccc32)c1C | inactive: 82%
43 | O=C(Nc1ccc(F)cc1F)c1noc2c1CCc1ccccc1-2 | inactive: 70%
44 | Cc1ccc(C(c2nnnn2C2CCCC2)N(C)C2CCCCC2)cc1 (stereo unspecified) | inactive: 84%
45 | CCc1nc(SCC(=O)Nc2ccc(NC(C)=O)cc2)n[nH]1 | inactive: 67%
46 | CC(C)CCNC(=O)CSCc1cnn(-c2ccccc2)c1-n1cccc1 | inactive: 69%

Row | SMILES | survival
47 | CSc1ccc(CCNC(=O)Cn2ncc3c(=O)oc4ccc(C)cc4c32)cc1 | inactive: 89%
48 | CCCCCOc1ccc(C2c3c(oc4ccccc4c3=O)C(=O)N2c2nc(C)c(C)s2)cc1OCC (stereo unspecified) | inactive: 60%
49 | COc1ccccc1CCNc1ncnc2c1nnn2C | inactive: 102%
50 | CC1(C)CC2CC(C)(CN2C(=O)Cc2ccccc2)C1 (stereo unspecified) | inactive: 74%
51 | OCCNc1nc2ccccc2s1 | inactive: 83%
52 | COC(=O)C1=C(C)N(c2ccc(N(C)C)cc2)C(C)=C(C(=O)OC)C1c1ccccc1 | inactive: 70%
53 | COc1ccc2c(c1)-c1nc(NC(=O)c3ccc(Cl)cc3)sc1CC2 | inactive: 96%
54 | COc1ccc(CNc2ncnc3c2nnn3C)cc1 | inactive: 83%
55 | Cc1nn(CC(=O)NCc2ccc(OC(C)C)cc2)c(=O)c2c(C)n(-c3ccc(Cl)cc3)nc12 | inactive: 91%
56 | COc1ccc(CN2C(=O)C(NC(=O)c3ccccc3C)(C(F)(F)F)N=C2c2ccccc2)cc1 (stereo unspecified) | inactive: 87%
57 | CCc1ccccc1NC(=O)Cn1nnc(C(=O)Nc2ccc(C)c(F)c2)c1N | inactive: 83%
58 | Cc1cccc(NC(=O)Cn2cc(C(=O)c3ccco3)c3ccccc32)c1C | inactive: 55%
59 | Cc1cn(C2CC(O)C(CO)O2)c(=O)[nH]c1=O (stereo unspecified) | inactive: 74%
60 | CCOC(=O)c1cccc(Nc2ccc3cc(S(=O)(=O)N4CCCCC4)ccc3n2)c1 | active: -1%
61 | O=c1c2oc3ccccc3c2n(Cc2ccccc2)c(=O)n1Cc1ccc2c(c1)OCO2 | inactive: 74%
62 | Cc1ccc(OCC(=O)Nc2ccc3nn(-c4ccc(Cl)cc4)nc3c2)cc1 | inactive: 72%
63 | CCOC(=O)C1CCCN(C(=O)c2ccc3c(c2)N(Cc2ccccc2)C(=O)c2ccccc2S3=O)C1 (stereo unspecified) | inactive: 120%
64 | CCCN1CCCc2cc(CN(CCCN3CCOCC3)C(=O)Nc3ccc(CC)cc3)ccc21 | inactive: 119%
65 | Cc1ccc(C)c(NC(=O)Cn2c(=O)n(CCC(=O)NCc3ccc4c(c3)OCO4)c(=O)c3ccccc32)c1 | inactive: 104%
66 | COc1cc(C2CC(=O)Nc3c2c(=O)[nH]c2ncnn32)ccc1O (stereo unspecified) | inactive: 70%
67 | CCOc1ccc(N=C2SCC(=O)N2CC)cc1 | inactive: 72%
68 | CCCCc1nn2c(=O)cc(COC(=O)c3ccccc3NC(=O)c3ccccc3OC)nc2s1 | inactive: 84%
69 | CCCCn1c(=O)c2oc3ccccc3c2n(CC(=O)Nc2cccc(Cl)c2)c1=O | inactive: 59%

Row | SMILES | survival
70 | CCCC(=O)N1c2nc(C(C)C)nn2C2(CCCCC2)[C@@H]2CCCC[C@@H]21 | inactive: 73%
71 | COc1cccc(CNC(=O)c2ccc(NC(=O)N3CCCCc4ccccc43)cc2)c1 | inactive: 81%
72 | COc1cc2c(cc1OC)n(CC(=O)c1ccc(F)cc1)c(=O)n1nc(CCn3nc(C)cc3C)nc21 | inactive: 105%
73 | COc1ccc(C)cc1NC(=O)c1ccc2c(Cl)c3c(nc2c1)CCC3 | inactive: 92%
74 | COc1ccc(S(=O)(=O)c2c(SC)nn(Cc3ccccc3C)c2NC(C)=O)cc1 | inactive: 55%
75 | CN(C(=O)COc1ccccc1)C1CCS(=O)(=O)C1 (stereo unspecified) | inactive: 89%
76 | S=c1[nH]nc(COc2ccccc2)o1 | inactive: 66%
77 | O=C(Nc1ccc(O)cc1)c1cccc(S(=O)(=O)N2CCOCC2)c1 | inactive: 77%
78 | CN(C)S(=O)(=O)c1cccc2nsnc12 | inactive: 82%
79 | NC(=O)c1cc(S(=O)(=O)NCC2CCC(C(=O)Nc3ccc(Cl)cc3)CC2)cs1 (stereo unspecified) | inactive: 66%
80 | Cc1cccc(NC(=O)C(O)C(O)C(=O)Nc2cccc(C)c2)c1 (stereo unspecified) | inactive: 87%
81 | Cc1nnc(N2CCN(C(=O)Nc3cccc(C(F)(F)F)c3)CC2)c2nn(-c3ccccc3)c(C)c12 | inactive: 84%
82 | O=C(Nc1cccc(Cl)c1)c1csnn1 | inactive: 86%
83 | Cc1cc(C)cc(NC(=O)N2CCC(NC(=O)C3CCCCC3)CC2)c1 | inactive: 92%
84 | Cc1ccc(C(=O)CSc2nnc(-c3cccc(C)c3)o2)cc1 | inactive: 80%
85 | Cc1ccc(-c2nc(SCC(=O)NCC3CCCO3)c(-c3ccc(C)cc3)[nH]2)cc1 (stereo unspecified) | inactive: 81%
86 | Cc1cccc(NC(=O)CN(C)S(=O)(=O)c2ccc3c(c2)c(=O)n(C)c(=O)n3C)c1 | inactive: 92%
87 | O=C(NCCS(=O)(=O)N1CCN(c2ccccc2)CC1)C1CC(=O)N(c2ccccc2)C1 (stereo unspecified) | inactive: 99%
88 | CC1CCCCN1CC(=O)N1CCCc2c1c(=O)oc1ccc(OCc3ccccc3)cc21 (stereo unspecified) | inactive: 77%
89 | COc1ccccc1C(=O)Nc1ccc(-c2nc3ccccc3s2)c(C)c1 | inactive: 83%
90 | Cc1cc(Br)ccc1NC(=O)C1(S(=O)(=O)c2ccc(Cl)cc2)CC1 | inactive: 62%
91 | O=C(NCc1ccccc1Cl)c1ccc(NC(=O)N2CCCCc3ccccc32)cc1 | inactive: 83%
